The list shows a part of the results. Single values of this set are uncertain.
System: U2OS
Experiment: Cell Painting induction (percent of morphological features significantly changed vs DMSO); higher = stronger morphological change
Conditions: 10 µM, 20 h
Experimental: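 Cell Painting assay in U2OS cells: compounds at 10 µM for 20 h, six dyes, 579 robust CellProfiler features as Z-scores vs DMSO median (MAD). Induction is the % of significantly changed features (active if ≥5%); relative cell count is in % of DMSO. The primary run holds DCM compounds preselected for induction ≥10%; the confirmation repeat defines active compounds (370 of 549). Replicate agreement is low, attributed to precipitation.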

[1] = run: primary screen (compounds selected for induction >=10%)
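Also: stains mark DNA, RNA and nucleoli, ER, actin, Golgi, plasma membrane and mitochondria, read by high-content imaging, with DMSO controls at matching solvent concentration.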

Compound | Cell Painting induction (run: confirmation repeat) | Cell Painting induction [1] [%]
COc1ccccc1CNc1ncnc2c1cnn2-c1ccc(Cl)cc1 | active: 28% | 28.5
COc1ccc(-c2noc(CC(=O)Nc3ccc(C)cc3Cl)n2)cc1 | inactive: 0.2% | 11.9
CC(C)c1ccc(S(=O)(=O)c2nnn3c2nc(N2CCCCC2)c2ccccc23)cc1 | inactive: 2.2% | 10.5
CCCN(CCC)CCCNC(=O)c1ccc2c(c1)N(CC)C(=O)c1ccccc1S2=O (stereo unspecified) | inactive: 2.2% | 13.8
COc1ccc(N(C(C)C(=O)N/N=C/c2ccc(OCC(C)C)cc2)S(C)(=O)=O)cc1 (stereo unspecified) | active: 8.3% | 13.1
CN(CCCNC(=O)c1nn(C)c2c1CS(=O)(=O)c1ccccc1-2)Cc1ccccc1 | inactive: 2.2% | 13
COc1cc(C2CC(=O)N(CC(=O)NCC3CCCO3)c3ccccc3S2)cc(OC)c1OC (stereo unspecified) | inactive: 2.4% | 11.6
CCc1ccc(NC(=O)CN(c2ccc(OC)cc2)S(=O)(=O)c2c(C)nn(C)c2C)cc1 | active: 7.4% | 25.4
Cc1cccc(N2CCN(C(=O)CCC(=O)N3CCOc4ccc(Cl)cc43)CC2C)c1 (stereo unspecified) | active: 8.5% | 26.3
Cc1cc2oc3c(c(=O)c2cc1C)C(c1ccc(C(C)C)cc1)N(CCCN1CCOCC1)C3=O (stereo unspecified) | active: 8.5% | 52.3
CCOC(=O)N1CCC(N2Cc3cccc(C(=O)Nc4ccc(S(=O)(=O)N(CC)CC)cc4)c3C2=O)CC1 | inactive: 2.1% | 24.2
COc1cccc(C(=O)CC(=O)C(=O)Nc2cc(Cl)c(OC)cc2OC)c1 | inactive: 0% | 18.5
Cc1ccc(NC(=O)c2cnn(-c3ccccc3)c2C2CCNCC2)c(Cl)c1 | active: 30.6% | 30.1

Reference: the supplement of paper PMC11181314
